# “Also recorded” adds a separate entry of the source. Where two headings read alike, the source gives them in different places. At least one peptide structure holds a part that was inferred or is arguable (an end, a ring closure or a residue). Where a SMILES comes first, the peptide text is derived from it. Bridges are numbered along the chain shown (N, C = ends). [ ]: non-standard residue; d: D form. Trp(5-OH) = N[C@@H](Cc1c[nH]c2ccc(O)cc12)C(=O)O
# Columns and labels:
# mice [1] = assay: 55° C. warm water tail-withdrawal test; assay type: in vivo, mouse; details: for antinociception in tail-withdrawal test: i.n. administration; for tail withdrawal response in opioid receptor knockout or antagonist-pretreated mice: MOR-KO, KOR-KO, DOR-KO mice, naloxone or naltrindole pretreatment; for time of peak antinociceptive activity: dose of 60 μg/mL
# mice [2] = assay: chronic constriction injury (CCI) model of neuropathic pain; assay type: in vivo, mouse; details: i.n.; for analgesic efficacy in CCI model in comparison to controls: 200 μg, morphine 10 mg/kg, i.p.
# asialofetuin = biological target: T1, asialofetuin (Bos taurus, UniProt P12763); assay: binding to L-fucose bearing asialofetuin by ITC
# T1 sequence (P12763 19-359): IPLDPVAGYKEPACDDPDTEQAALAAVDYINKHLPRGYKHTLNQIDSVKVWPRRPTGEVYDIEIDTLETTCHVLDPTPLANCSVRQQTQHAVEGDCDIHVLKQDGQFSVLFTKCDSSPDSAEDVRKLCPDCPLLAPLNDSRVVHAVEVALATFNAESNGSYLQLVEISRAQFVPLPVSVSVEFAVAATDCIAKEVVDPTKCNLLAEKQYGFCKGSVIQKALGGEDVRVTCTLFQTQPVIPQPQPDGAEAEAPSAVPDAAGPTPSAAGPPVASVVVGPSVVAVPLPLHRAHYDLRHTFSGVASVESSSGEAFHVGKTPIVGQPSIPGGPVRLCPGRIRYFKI
# δ opioid receptor (DOR) = biological target: T2, δ opioid receptor (DOR) (Homo sapiens, UniProt P41143); assay: opioid receptor protein binding radioassay, DOR
# T2 construct: expressed in transfected cells; host or cells: CHO cells
# T2 sequence (P41143 whole entry): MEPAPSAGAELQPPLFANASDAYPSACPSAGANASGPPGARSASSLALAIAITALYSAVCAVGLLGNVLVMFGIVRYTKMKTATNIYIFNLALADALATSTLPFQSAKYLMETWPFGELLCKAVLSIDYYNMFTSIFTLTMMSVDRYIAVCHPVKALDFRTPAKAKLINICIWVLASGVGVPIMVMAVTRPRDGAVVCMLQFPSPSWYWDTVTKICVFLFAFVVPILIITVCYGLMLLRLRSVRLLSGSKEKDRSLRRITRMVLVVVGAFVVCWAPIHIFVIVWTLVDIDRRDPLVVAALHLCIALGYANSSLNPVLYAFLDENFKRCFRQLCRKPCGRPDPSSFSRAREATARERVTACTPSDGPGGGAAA
# κ opioid receptor (KOR) = biological target: T3, κ opioid receptor (KOR) (Homo sapiens, UniProt P41145); assay: opioid receptor protein binding radioassay, KOR; details: read-out: Kd opioid receptor K
# T3 construct: expressed in transfected cells; host or cells: CHO cells
# T3 sequence (P41145 whole entry): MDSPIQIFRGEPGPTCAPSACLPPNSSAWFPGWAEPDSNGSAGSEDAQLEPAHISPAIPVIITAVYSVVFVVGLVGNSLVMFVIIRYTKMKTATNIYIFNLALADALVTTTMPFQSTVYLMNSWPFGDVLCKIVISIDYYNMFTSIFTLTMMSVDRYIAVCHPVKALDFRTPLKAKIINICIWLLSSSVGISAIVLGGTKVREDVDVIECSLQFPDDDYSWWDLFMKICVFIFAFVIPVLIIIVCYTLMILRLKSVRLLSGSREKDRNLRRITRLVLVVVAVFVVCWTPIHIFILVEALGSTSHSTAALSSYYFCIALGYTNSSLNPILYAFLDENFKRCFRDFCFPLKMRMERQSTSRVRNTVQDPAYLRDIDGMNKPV
# μ opioid receptor (MOR) = biological target: T4, μ opioid receptor (MOR) (Homo sapiens, UniProt P35372); assay: opioid receptor protein binding radioassay, MOR; details: read-out: Kd opioid receptor μ
# T4 construct: expressed in transfected cells; host or cells: CHO cells
# T4 sequence (P35372 whole entry): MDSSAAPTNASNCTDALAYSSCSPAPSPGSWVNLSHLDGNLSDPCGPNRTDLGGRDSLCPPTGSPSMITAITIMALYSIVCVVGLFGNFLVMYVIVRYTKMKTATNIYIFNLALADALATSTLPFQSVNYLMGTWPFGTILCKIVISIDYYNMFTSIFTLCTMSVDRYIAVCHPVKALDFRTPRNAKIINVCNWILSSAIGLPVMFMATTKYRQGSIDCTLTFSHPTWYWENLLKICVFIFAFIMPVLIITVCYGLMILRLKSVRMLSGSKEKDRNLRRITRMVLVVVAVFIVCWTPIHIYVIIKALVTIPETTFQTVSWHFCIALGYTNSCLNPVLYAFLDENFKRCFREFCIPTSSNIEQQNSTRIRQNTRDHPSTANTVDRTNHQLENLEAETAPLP
# [3] = read-out: Kd Asialofetuin, determined by ITC
Structure (SMILES),antinociception in tail-withdrawal test (mice [1]),tail withdrawal response in opioid receptor knockout or antagonist-pretreated mice (mice [1]; i.n.),time of peak antinociceptive activity (mice [1]; i.n.) [min],analgesic efficacy in CCI model in comparison to controls (mice [2]),Kd (asialofetuin; [3]) [µM],Kd (asialofetuin; read-out: Kd asialofetuin) [µM],Kd (κ opioid receptor (KOR)) [µM],Kd (μ opioid receptor (MOR)) [µM],further results
"CC(C)C[C@@H]1NC(=O)[C@H](CC(N)=O)NC(=O)[C@H](C(C)C)NC(=O)[C@@H]2CCCN2C(=O)[C@H](Cc2ccccc2)NC(=O)[C@H](Cc2c[nH]cn2)NC(=O)[C@H](CCCNC(=N)N)NC(=O)[C@H](Cc2ccccc2)NC(=O)[C@@H](NC(=O)[C@H](CCCCN)NC(=O)[C@@H]2CCCN2C(=O)[C@H](CO)NC(=O)[C@H](C)NC(=O)[C@@H](N)Cc2ccc(O)cc2)CSSC[C@@H](C(=O)N[C@H](C(N)=O)[C@@H](C)O)NC(=O)[C@H](C)NC1=O [OLMOR-L1, Y^1A^2S^3P^4K^5-cyclo[C^6F^7R^8H^9F^10P^11V^12N^13L^14A^15C^16]T^17] (H-YASPKCFRHFPVNLACT-NH2; disulfide 6-16)",dose-dependent antinociception,did not show the desired MOR selectivity,–,–,–,–,–,–,"improvement in analgesic activity over DADLE-OL (600 ug/mL) (mice [1]; 200 ug/mL, i.n.): approximately 20%"
"CC(C)C[C@@H]1NC(=O)[C@H](CCCCN)NC(=O)[C@@H]2CCCN2C(=O)[C@H](Cc2c[nH]c3ccccc23)NC(=O)[C@H](Cc2ccccc2)NC(=O)CNC(=O)[C@H](CCCNC(=N)N)NC(=O)[C@H](Cc2ccccc2)NC(=O)[C@@H](NC(=O)[C@H](CCCCN)NC(=O)[C@@H]2CCCN2C(=O)[C@H](CO)NC(=O)[C@H](C)NC(=O)[C@@H](N)Cc2c[nH]c3ccc(O)cc23)CSSC[C@@H](C(=O)N[C@H](C(N)=O)[C@@H](C)O)NC(=O)[C@H](C)NC1=O [OLKOR-L1-5HTrp, 5-HTrp^1-A^2S^3P^4K^5-cyclo[C^6F^7R^8G^9F^10W^11P^12K^13L^14A^15C^16]T^17] (H-[Trp(5-OH)]ASPKCFRGFWPKLACT-NH2; disulfide 6-16)",dose and time dependent antinociception,significantly decreased response in KOR-KO mice,30,significant improvement in the analgesic efficacy; also recorded: more potent and longer lasting antiallodynic effects,–,–,–,–,"analgesic efficacy in tail-withdrawal assay in comparison to OLKOR-L1, morphine and gabapentin (mice [1]; 200 μg, i.n.): significant improvement in the analgesic efficacy; time at which antinociceptive effects were observed after administration (mice [1]; i.n., all tested doses): 2 min"
"CC(C)C[C@@H]1NC(=O)[C@H](C(C)C)NC(=O)CNC(=O)[C@H](CC(N)=O)NC(=O)[C@@H]2CCCN2C(=O)[C@H](Cc2ccc(O)cc2)NC(=O)[C@H](CCCNC(=N)N)NC(=O)[C@H](Cc2ccccc2)NC(=O)[C@@H](NC(=O)[C@H](CCCCN)NC(=O)[C@@H]2CCCN2C(=O)[C@H](CO)NC(=O)[C@H](C)NC(=O)[C@@H](N)Cc2ccc(O)cc2)CSSC[C@@H](C(=O)N[C@H](C(N)=O)[C@@H](C)O)NC(=O)[C@H](C)NC1=O [OL, Y^1A^2S^3P^4K^5-cyclo[C^6F^7R^8Y^9P^10N^11G^12V^13L^14A^15C^16]T^17, reference compound] (H-YASPKCFRYPNGVLACT-NH2; disulfide 6-16; N-terminus and C-terminus assumed)",did not themselves produce antinociception,–,–,–,64,42,–,–,–
CC(C)C[C@@H]1NC(=O)[C@H](C(C)C)NC(=O)CNC(=O)[C@H](CC(N)=O)NC(=O)[C@@H]2CCCN2C(=O)[C@H](Cc2ccc(O)cc2)NC(=O)[C@H](CCCNC(=N)N)NC(=O)[C@H](Cc2ccccc2)NC(=O)[C@@H](NC(=O)[C@H](CCCCN)NC(=O)[C@@H](CC(C)C)NC(=O)[C@H](Cc2ccccc2)NC(=O)CNC(=O)[C@@H](C)NC(=O)[C@@H](N)Cc2ccc(O)cc2)CSSC[C@@H](C(=O)N[C@H](C(N)=O)[C@@H](C)O)NC(=O)[C@H](C)NC1=O [DADLE-OL II] (H-Y[dA]GF[dL]KCFRYPNGVLACT-NH2; disulfide 7-17; N-terminus and C-terminus assumed),active analogue in vivo,–,–,–,–,33,1.08 ± 0.139,0.123 ± 0.041,Kd (δ opioid receptor (DOR); read-out: Kd DOR): 0.275 µM; activity in tail-withdrawal test in comparison to DADLE-OL (mice [1]; i.n.): Lower activity
"CC(C)C[C@H](NC(=O)[C@H](CO)NC(=O)[C@H](Cc1ccccc1)NC(=O)[C@@H](NC(=O)[C@@H](N)CCCNC(=N)N)C(C)C)C(=O)N[C@H]1CSSC[C@@H](C(=O)N2CCC[C@H]2C(N)=O)NC(=O)[C@H](C)NC(=O)CNC(=O)[C@H](CCCCN)NC(=O)[C@H](Cc2ccc(O)cc2)NC(=O)[C@@H]2CCCN2C(=O)[C@H](Cc2ccc(O)cc2)NC(=O)[C@H]([C@@H](C)O)NC(=O)[C@H](C)NC(=O)[C@H](CC(N)=O)NC1=O [Control, reference compound] (H-RVFSLCNATYPYKGACP-NH2; disulfide 6-16; N-terminus and C-terminus assumed)",–,–,–,–,760,–,> 10,> 10,"Kd (δ opioid receptor (DOR); read-out: Kd opioid receptor δ, protein binding radioassay): > 10 µM"
"CC(C)C[C@@H]1NC(=O)[C@H](CCCCN)NC(=O)[C@@H]2CCCN2C(=O)[C@H](Cc2c[nH]c3ccccc23)NC(=O)[C@H](Cc2ccccc2)NC(=O)CNC(=O)[C@H](CCCNC(=N)N)NC(=O)[C@H](Cc2ccccc2)NC(=O)[C@@H](NC(=O)[C@H](CCCCN)NC(=O)[C@@H]2CCCN2C(=O)[C@H](CO)NC(=O)[C@H](C)NC(=O)[C@@H](N)Cc2ccc(O)cc2)CSSC[C@@H](C(=O)N[C@H](C(N)=O)[C@@H](C)O)NC(=O)[C@H](C)NC1=O [OLKOR-L1, Y^1A^2S^3P^4K^5-cyclo[C^6F^7R^8G^9F^10W^11P^12K^13L^14A^15C^16]T^17] (H-YASPKCFRGFWPKLACT-NH2; disulfide 6-16)",dose and time dependent antinociception,significantly decreased response in KOR-KO mice,30,comparable to the effect of morphine,–,–,–,–,"more potent antinociception than DADLE-OL at 600 μg/mL (mice [1]; 60 μg/mL, i.n.): approximately 20%; antiallodynic effects in CCI model (mice [2]): exhibits antiallodynic effects"

# From patent US11578100B2, “Cyclic peptides, cyclic peptide conjugates and methods of use thereof” (Florida Atlantic University Board of Trustees, priority 2018, dated 2023)
